Results taken from PubChem BioAssay AID1963576 (National Center for Advancing Translational Sciences (NCATS), 2024).
In all, about 46,000 compounds went through this assay and about 60 (0.1%) were called active. Roughly 3% stayed inconclusive and do not appear here. Calls come from the whole dose curve; as a rule, active = well fitted inhibition curve with a large enough effect; inconclusive = small, poorly fitted or top-dose-only effect; inactive = no such curve, though single readings can be large or run the other way. This is one part of the list.

Experiment: Primary qHTS assay for Inhibitors of ovarian cancer metastasis using an organotypic tumor microenvironment (TME) model.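 For activity change, negative = inhibition: plate controls were DMSO wells for no effect and tomatine positive control wells for full effect.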 Note: nearly all actives have a fitted effect of over 65% in size.
Conditions: SKOV3ip1-GFP adhesion/invasion on 3D omental model, fluorescence; series mostly up to 45.8 µM; activity change, negative = inhibition: at the top concentration
Outline: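 Adhesion/invasion was scored as fixed GFP-labeled SKOV3ip1 cell counts (488/509 nm), normalized to DMSO and tomatine controls. Cancer cells in serum-free medium, with four compound doses (0.36-46 umol/L), sat 2 hr at RT then 16 hr at 37 C on a 48 hr fibroblast/mesothelial/ECM culture.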

Row | Compound | outcome | activity change, negative = inhibition
1 | CC1CCN(C(=O)c2cc(-c3cccc(Cl)c3)on2)CC1 | inactive | 
2 | CCCC(=O)C1=C(c2ccc(C)c(C)c2)N(C(=O)CCC)n2c(CC)nnc2S1 |  | inactive: -10.1%
3 | Cn1cnc2c1c(=O)[nH]c(=O)n2C |  | inactive: -5.16%
4 | CCn1ccc2cc(S(=O)(=O)N3CCCN(C(=O)Nc4cc(Cl)ccc4C)CC3)ccc21 | inactive | 
5 | CC(C)c1ccc(NS(=O)(=O)c2ccc3[nH]cc(C(=O)N4CCCC4)c(=O)c3c2)cc1 |  | inactive: -1.64%
6 | COc1ccc(OC)c(CNC(=O)CCCn2nc(C)c3c(C)n(-c4ccc(C)cc4)nc3c2=O)c1 |  | inactive: -0.563%
7 | O=C(Cn1ncc2c3ccccc3n(Cc3ccccc3)c2c1=O)Nc1ccccc1C(F)(F)F | inactive | 
8 | COc1cccc(CNC(=O)Cc2c(C)c3c(cc(C)c4c(C)coc43)oc2=O)c1 |  | inactive: 0.689%
9 | CCOc1ccc(NC(=O)Nc2ccc3snnc3c2)cc1 | inactive | 
10 | CC1=NN(c2ccccc2)C(=O)C1 |  | inactive: -18%
11 | Cc1nn(-c2nc(-c3ccc(F)cc3)cc(C(F)(F)F)n2)c(C)c1Cl |  | inactive: -9.33%
12 | CCc1ccc(CNC(=O)c2ccc3nc(C(C)C)oc3c2)cc1 |  | inactive: -7.83%
13 | CC(=O)N1CCC2(CC1)OC(=O)C(C)=C2C(=O)NCc1ccc(Cl)cc1 | inactive | 
14 | Cn1ccc2c(OCC(=O)NCc3ccccc3Cl)cccc2c1=O | inactive | 
15 | CCc1ccc(NC(=O)C(=O)NCC(c2cccnc2)N2CCN(C)CC2)cc1 (stereo not drawn) |  | inactive: -3.93%
16 | O=C(Nc1ccc2oc(-c3cccnc3)nc2c1)c1ccc(-c2ccccc2)o1 |  | inactive: -7.37%
17 | COc1ccc(OC(C)c2nc3ccccc3[nH]2)cc1 (stereo not drawn) |  | inactive: 0.761%
18 | O=c1cc(-c2ccc(F)cc2)nc(SCc2nc(-c3ccccc3Cl)no2)[nH]1 |  | inactive: 2.51%
19 | CCOc1ccc(NC(=O)Cn2cc(C(=O)c3ccc(C)c(C)c3)c(=O)c3cc(OC)c(OC)cc32)cc1 | inactive | 
20 | CCOC(=O)c1ccc(NC(=O)c2csc3c2CCCCC3)cc1 |  | inactive: -13.9%
21 | COc1cc(NC(=O)C(CC(C)C)NS(=O)(=O)c2ccc3c(c2)oc(=O)n3C)c(C(=O)O)cc1OC (stereo not drawn) |  | inactive: 1.57%

Row | Compound | outcome | activity change, negative = inhibition
22 | Cc1ccc(CN2CCN(C3CCN(S(=O)(=O)c4ccc(C)cc4)CC3)C(=O)C2=O)cc1 | inactive | 
23 | CCOc1ccc(NC(=O)C(=O)NCCc2csc3nc(-c4ccccc4F)nn23)cc1 |  | inactive: -5.04%
24 | COC(=O)c1ccc(Cl)cc1NC(=O)N(C)CCc1c(C)nn(C)c1C |  | inactive: -3.99%
25 | Cc1cccc(N2CCN(C(=O)c3cc4c(=O)n(C)c5ccccc5c4s3)CC2)c1C |  | inactive: 3.78%
26 | O=C(O)c1ccc2nc(-c3cc4cc(F)ccc4oc3=O)[nH]c2c1 |  | inactive: -1.2%
27 | O=C(COc1ccccc1Cl)Nc1ccc(Cl)c(-c2nc3ccccc3o2)c1 |  | inactive: -5.89%
28 | Cc1oc(-c2cccc(Cl)c2)nc1CSc1nc2ncccc2[nH]1 | inactive | 
29 | Cc1ccc(-n2ccnc(NCCc3ccc(S(N)(=O)=O)cc3)c2=O)cc1C |  | inactive: -1.39%
30 | CCC1CCCCN1C(=O)CSc1nc2c([nH]c3ccccc32)c(=O)n1-c1cccc(OC)c1 (stereo not drawn) |  | inactive: -4.78%
31 | COc1cc(C(=O)Nc2ccc(NC(=O)c3ccc(Br)cc3)cc2)cc(OC)c1OC | inactive | 
32 | COc1ccc(CCn2c3c(c(=O)[nH]c2=O)C(NC(=O)c2ccccc2OC)(C(F)(F)F)C(=O)N3)cc1OC (stereo not drawn) |  | inactive: 23.6%
33 | Cc1ccc(CNC(=O)CCc2c(C)nn(-c3ccc(N4CCCC4)nn3)c2C)cc1 | inactive | 
34 | CCc1cccc(C)c1Nc1c(-c2cccc(O)c2)nc2cnccn12 |  | inactive: 21.2%
35 | CCOC(=O)C1=C(CN2CCN(c3ccccc3F)CC2)NC(=O)NC1c1ccc(OC)cc1 (stereo not drawn) |  | inactive: 49.7%
36 | COC(=O)CSc1ccc2nnc(CCNS(=O)(=O)c3ccc(C)cc3)n2n1 | inactive | 
37 | COc1ccc(/C=C/c2nc(C#N)c(NC3CCCCC3)o2)cc1OC | inactive | 
38 | O=C(CCS(=O)(=O)c1cc2c3c(c1)CCN3C(=O)CC2)NCc1ccc(Cl)cc1 | inactive | 
39 | CCOc1ccccc1NC(=O)Cn1nc2c3cc(F)ccc3n(Cc3cccc(C)c3)cc-2c1=O |  | inactive: 11.3%
40 | COc1ccccc1CNC(=O)Cn1c(-c2cccs2)cc2cc(F)ccc21 |  | inactive: -1.37%
41 | COc1cc2c(C(=O)N3CCN(c4ccc(C)cc4)C(C)C3)cn(CC(C)C)c(=O)c2cc1OC (stereo not drawn) | inactive | 
42 | CCOC(=O)c1ccc(NC(=O)c2cc3c(=O)n(C)c4ccccc4c3n2C)cc1 |  | inactive: 12.3%

Row | Compound | outcome | activity change, negative = inhibition
43 | Cn1c(=O)cc(SCC(=O)Nc2cccc(C#N)c2)c2ccc(Cl)cc21 |  | inactive: -0.0519%
44 | Cc1ccc(C)c(NC(=O)C(=O)NCCc2csc(-c3cccc(F)c3)n2)c1 |  | inactive: -1.82%
45 | CCCCCNC(=O)N1CCC(CN(Cc2ccc(Cl)cc2)Cc2ccc([N+](=O)[O-])s2)C1 (stereo not drawn) |  | inactive: 12.1%
46 | COc1ccc(CCNC(=O)c2cc(-c3ccc(Cl)cc3)on2)cc1OC | inactive | 
47 | COc1cccc(NC(=O)CCc2nc(-c3cc(OC)c(OC)c(OC)c3)no2)c1 | inactive | 
48 | Cc1ccc(CN2CCc3nc(N4CCN(C)CC4)ncc3C2)cc1 |  | inactive: -7.2%
49 | COc1ccc(C(=O)N2CCC(c3ccncc3)CC2)cc1OC |  | inactive: -4.66%
50 | CCc1ccc(NC(=O)Cn2ccn(-c3cccc(Cl)c3)c(=O)c2=O)cc1 | inactive | 
51 | COc1ccc(N2CCN(C(=O)Cc3noc4ccc(C)cc34)CC2)cc1 |  | inactive: -2.2%
52 | COC(=O)c1ccc(OC)c(CN2CCCN(Cc3ccc(C)cc3)S2(=O)=O)c1 |  | inactive: 7.73%
53 | COc1cc2c(cc1OC)C(COc1ccc3c(C)cc(=O)oc3c1)N(C(=O)c1ccc(C)c(C)c1)CC2 (stereo not drawn) |  | inactive: -1.78%
54 | Cc1ccc(C)c(N2CCN(C(=O)c3ccc4c(c3)c(C)c(C)n4C)CC2)c1 |  | inactive: 28.1%
55 | CCOc1ccccc1C1CC(=O)NC(C)=C1C(=O)OCc1ccc(C)cc1 (stereo not drawn) |  | inactive: 8.13%
56 | COc1ccc(Nc2nnc(-c3ccc(C)c(S(=O)(=O)N4CCN(C)CC4)c3)c3ccccc23)cc1 |  | inactive: -4.29%
57 | Cc1nc2sccn2c(=O)c1S(=O)(=O)NCc1ccccc1 |  | inactive: -13.8%
58 | Cc1cccc(C)c1OCC(=O)N(Cc1ccc(Cl)cc1)CC1CCCO1 (stereo not drawn) | inactive | 
59 | COc1ccc(Cl)cc1C(=O)NCC(c1ccc(N(C)C)cc1)N1CCOCC1 (stereo not drawn) |  | inactive: 19%
60 | Cc1oc2c(c1C(=O)Nc1ccc(Cl)cc1F)C1=NCCN1C=N2 |  | inactive: 95.1%
61 | CC1CCCN(c2csc3ccccc3c2=O)C1 (stereo not drawn) |  | inactive: 3.02%
62 | CCCN(Cc1cccs1)C(=O)Nc1ccccc1C | inactive | 
63 | Cn1c(=O)c2c(nc(NCCc3ccccc3)n2Cc2ccc(Cl)c(Cl)c2)n(C)c1=O | inactive | 
